From PMC5732248
These are yes or no findings as the source states them, for the method shown. In cells and extracts the contact can be indirect. Some entries that bind do so weakly or less than the wild type. Each block holds one substance with its values, some of them ahead of it.

Chains of the proteins cited; added tags and fusions are not shown. Lines headed by an entry give the natural chain unless they say otherwise; changes in a name come on top. A line that says so, or that is headed by a name, gives the form on record, which may keep a tag or linker. Residues count along the entry.
UniProt Q9P246: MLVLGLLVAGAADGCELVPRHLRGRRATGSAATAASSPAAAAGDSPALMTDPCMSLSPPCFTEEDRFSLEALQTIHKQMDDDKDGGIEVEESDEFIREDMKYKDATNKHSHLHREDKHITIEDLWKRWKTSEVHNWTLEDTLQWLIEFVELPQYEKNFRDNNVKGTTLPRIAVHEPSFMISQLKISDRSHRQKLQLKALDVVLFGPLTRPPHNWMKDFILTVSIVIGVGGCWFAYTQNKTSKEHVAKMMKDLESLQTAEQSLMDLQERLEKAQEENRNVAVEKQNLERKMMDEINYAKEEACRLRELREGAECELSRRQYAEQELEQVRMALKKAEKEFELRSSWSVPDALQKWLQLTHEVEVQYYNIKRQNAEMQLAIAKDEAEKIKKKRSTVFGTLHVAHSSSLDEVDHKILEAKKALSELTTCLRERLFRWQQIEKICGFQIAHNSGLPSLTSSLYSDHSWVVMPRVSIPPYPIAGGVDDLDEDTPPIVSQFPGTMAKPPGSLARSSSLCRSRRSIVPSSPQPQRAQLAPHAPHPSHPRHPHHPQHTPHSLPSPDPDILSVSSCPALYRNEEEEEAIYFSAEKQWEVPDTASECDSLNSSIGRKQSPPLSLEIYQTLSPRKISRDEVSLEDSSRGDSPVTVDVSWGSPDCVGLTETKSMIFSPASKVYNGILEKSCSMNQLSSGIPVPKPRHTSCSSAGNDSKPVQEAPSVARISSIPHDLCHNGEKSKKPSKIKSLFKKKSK
GST-STIM2-CT (wild type STIM2 cytoplasmic part, aa248-C terminal): residues 248-746 of Q9P246
GST-STIM2-IP/NN-CT (I688N, P689N) (Q9P246, form named): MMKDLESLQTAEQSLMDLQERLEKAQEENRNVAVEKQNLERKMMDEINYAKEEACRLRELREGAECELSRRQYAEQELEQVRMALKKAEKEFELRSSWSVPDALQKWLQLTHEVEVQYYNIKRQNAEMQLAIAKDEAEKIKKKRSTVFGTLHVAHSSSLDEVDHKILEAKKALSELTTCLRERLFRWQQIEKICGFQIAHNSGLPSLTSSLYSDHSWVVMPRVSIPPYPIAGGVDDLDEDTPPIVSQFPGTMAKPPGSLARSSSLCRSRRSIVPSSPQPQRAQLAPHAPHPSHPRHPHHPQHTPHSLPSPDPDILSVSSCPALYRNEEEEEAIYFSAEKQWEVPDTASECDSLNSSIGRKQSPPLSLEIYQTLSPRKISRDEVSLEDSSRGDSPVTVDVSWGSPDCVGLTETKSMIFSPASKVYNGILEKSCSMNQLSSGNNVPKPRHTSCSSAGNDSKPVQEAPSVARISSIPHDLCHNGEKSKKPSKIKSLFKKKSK
YFP-STIM2-IP/NN (I688N, P689N) (Q9P246, form named): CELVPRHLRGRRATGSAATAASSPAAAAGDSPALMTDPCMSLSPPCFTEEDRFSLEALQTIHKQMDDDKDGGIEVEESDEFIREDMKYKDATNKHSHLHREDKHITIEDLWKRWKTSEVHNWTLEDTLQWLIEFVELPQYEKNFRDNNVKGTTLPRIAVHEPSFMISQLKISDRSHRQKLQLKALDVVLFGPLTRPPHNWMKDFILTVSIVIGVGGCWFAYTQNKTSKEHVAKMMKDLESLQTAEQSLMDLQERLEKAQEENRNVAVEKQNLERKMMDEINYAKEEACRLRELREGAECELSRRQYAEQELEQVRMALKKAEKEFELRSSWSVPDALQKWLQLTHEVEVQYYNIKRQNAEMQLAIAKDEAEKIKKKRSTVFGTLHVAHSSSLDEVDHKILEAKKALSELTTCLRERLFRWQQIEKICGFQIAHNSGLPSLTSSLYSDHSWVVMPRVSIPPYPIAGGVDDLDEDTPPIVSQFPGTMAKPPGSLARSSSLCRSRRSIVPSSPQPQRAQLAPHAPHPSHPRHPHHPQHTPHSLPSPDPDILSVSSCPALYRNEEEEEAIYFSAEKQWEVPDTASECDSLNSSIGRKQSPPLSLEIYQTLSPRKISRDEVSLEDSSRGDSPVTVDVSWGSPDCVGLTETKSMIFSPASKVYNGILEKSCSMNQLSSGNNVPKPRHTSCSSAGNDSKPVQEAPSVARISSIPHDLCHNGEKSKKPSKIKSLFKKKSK
UniProt Q6PER3: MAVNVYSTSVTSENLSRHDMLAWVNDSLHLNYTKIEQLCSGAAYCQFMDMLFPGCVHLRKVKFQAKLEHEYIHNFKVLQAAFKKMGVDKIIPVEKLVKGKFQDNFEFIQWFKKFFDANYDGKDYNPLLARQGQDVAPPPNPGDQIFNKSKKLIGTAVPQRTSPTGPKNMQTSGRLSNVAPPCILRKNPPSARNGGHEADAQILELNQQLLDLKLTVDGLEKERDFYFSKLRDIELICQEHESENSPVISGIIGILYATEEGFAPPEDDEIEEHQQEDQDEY
UniProt P83093, residues 15-746: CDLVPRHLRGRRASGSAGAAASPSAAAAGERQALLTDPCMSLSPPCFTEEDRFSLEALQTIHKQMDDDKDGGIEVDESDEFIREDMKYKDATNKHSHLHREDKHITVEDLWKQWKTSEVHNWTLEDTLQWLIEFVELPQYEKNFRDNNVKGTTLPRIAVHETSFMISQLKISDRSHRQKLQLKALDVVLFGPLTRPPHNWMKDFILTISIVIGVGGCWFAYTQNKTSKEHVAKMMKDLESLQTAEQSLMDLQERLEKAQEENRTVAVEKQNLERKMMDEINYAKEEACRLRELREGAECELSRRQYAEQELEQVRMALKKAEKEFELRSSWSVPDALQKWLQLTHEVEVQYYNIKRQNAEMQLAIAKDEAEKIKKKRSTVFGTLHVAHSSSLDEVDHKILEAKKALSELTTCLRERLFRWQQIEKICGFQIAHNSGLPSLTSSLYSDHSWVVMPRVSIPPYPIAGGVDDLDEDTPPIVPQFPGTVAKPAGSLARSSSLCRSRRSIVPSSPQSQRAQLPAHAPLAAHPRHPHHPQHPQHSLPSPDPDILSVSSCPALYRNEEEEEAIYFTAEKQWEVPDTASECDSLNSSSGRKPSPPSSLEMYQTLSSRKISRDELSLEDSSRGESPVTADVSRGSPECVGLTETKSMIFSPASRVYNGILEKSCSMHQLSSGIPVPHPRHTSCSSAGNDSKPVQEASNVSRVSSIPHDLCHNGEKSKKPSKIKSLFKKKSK

Key:
[1] = target: GST-STIM2-CT (wild type STIM2 cytoplasmic part, aa248-C terminal) (UniProt Q9P246); assay: pull-down; GST-fusion proteins immobilized on glutathion-agarose beads, incubated overnight at 4 °C with crude whole brain synaptosomal lysate (1% Triton, 130 mM NaCl, 50 mM Tris, pH 7.2); blot with anti-EB3; only the target purified
[2] = target: GST-STIM2-IP/NN-CT (I688N, P689N) (UniProt Q9P246); assay: as above
[3] = target: EB3 protein (mouse (endogenous in brain synaptosomes)) (UniProt Q6PER3); assay: co-IP; whole brain crude synaptosomal fraction (P2) solubilized in RIPA lysis buffer; rabbit polyclonal anti-EB3 or control rabbit serum on Protein A/G agarose, lysate overnight at 4 °C; blot with anti-STIM2
[4] = target: FLAG-EB3 (mouse) (UniProt Q6PER3); assay: condition: only cells incubated in Ca2+-free aCSF with 400 µM EGTA and 1 µM Thapsigargin for 10 minutes before lysis; co-IP; HEK293T cells transfected with FLAG-EB3 and YFP-STIM2, preincubated 10 minutes in Ca2+-free aCSF with 400 µM EGTA and 1 µM Thapsigargin (+Tg, ER calcium store depletion), RIPA lysate; anti-EB3 on Protein A/G agarose; blot with anti-STIM2 and anti-FLAG
[5] = target: FLAG-EB3 (mouse) (UniProt Q6PER3); assay: co-IP; HEK293T cells transfected with FLAG-EB3 and YFP-STIM2 or YFP-STIM2-IP/NN, preincubated 10 minutes in aCSF containing 2 mM Ca2+ (-Tg), RIPA lysate; anti-EB3 on Protein A/G agarose; blot with anti-STIM2 and anti-FLAG

binding [1]: binds
binding [2]: no binding
Substance: EB3 protein (from UniProt Q6PER3 1-281)

binding [3]: binds
Substance: STIM2 protein (from UniProt P83093 15-746)

binding [4]: no binding
binding [5]: binds
Substance: YFP-STIM2 (from UniProt Q9P246 15-746)

binding [5]: no binding
Substance: YFP-STIM2-IP/NN (I688N, P689N) (from UniProt Q9P246 15-746)
